The results in this text go back to PubChem BioAssay AID1159614 (National Center for Advancing Translational Sciences (NCATS), 2016).

Molecules are shown by their SMILES. The whole screen tested about 45,000 compounds, of which about 65 (0.1%) were called active. The call rests on the fitted dose curve; in most records, active means well fitted activation curve with a large enough effect; inconclusive means small, poorly fitted or top-dose-only effect; inactive means no such curve, though single readings can be large or run the other way. The list shows a part of the results.

The target in this assay is Galactocerebrosidase (Homo sapiens) (UniProt P54803). Briefly: A Novel Cell-Based Assay to Identify Small Molecules for B -Galactocerebrosidase. Further: 0% is about no effect; nearly all actives have a fitted effect of over 65% in size. Conditions: 145M-Twi-hGALC-G270D cells (Twitcher mouse brain line with human GALC G270D), HMU-beta-Gal fluorescence, 48 h; series mostly up to 57.5 µM; activation: at the top concentration. The essentials: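 Live 145M-Twi cells (Twitcher mouse brain-derived, GALC-null) stably expressing human GALC-G270D, with a wild-type GALC line, were compound-treated. Residual GALC activity was then read as fluorescence from 0.1 mM final HMU-β-gal at pH 5.2; higher signal means activation.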
UniProt P54803, sequence (P54803 whole entry, looked up): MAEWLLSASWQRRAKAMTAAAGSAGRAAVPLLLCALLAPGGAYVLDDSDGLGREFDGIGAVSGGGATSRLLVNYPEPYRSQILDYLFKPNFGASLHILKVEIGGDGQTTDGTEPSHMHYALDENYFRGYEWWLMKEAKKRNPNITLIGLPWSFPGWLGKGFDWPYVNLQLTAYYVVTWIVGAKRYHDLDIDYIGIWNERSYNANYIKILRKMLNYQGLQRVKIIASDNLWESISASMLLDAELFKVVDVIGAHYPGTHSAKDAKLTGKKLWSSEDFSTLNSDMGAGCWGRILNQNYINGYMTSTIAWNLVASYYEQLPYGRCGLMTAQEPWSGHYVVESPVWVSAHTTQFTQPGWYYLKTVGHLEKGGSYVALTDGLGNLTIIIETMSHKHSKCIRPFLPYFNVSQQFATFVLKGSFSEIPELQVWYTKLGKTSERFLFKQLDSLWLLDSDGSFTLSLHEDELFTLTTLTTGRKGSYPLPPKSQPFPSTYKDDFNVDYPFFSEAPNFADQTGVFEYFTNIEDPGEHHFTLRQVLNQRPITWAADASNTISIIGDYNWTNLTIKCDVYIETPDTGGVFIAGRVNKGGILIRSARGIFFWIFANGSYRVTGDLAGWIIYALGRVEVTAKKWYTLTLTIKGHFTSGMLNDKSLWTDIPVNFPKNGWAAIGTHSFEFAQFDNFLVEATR
Turning to `Cc1ccc(S(=O)(=O)N2CCc3cc(C(=O)N(C)Cc4ccccc4)ccc32)cc1`, the “activation” value was inactive: -10.7%.

As to `CCc1sc(Nc2cccc(C)c2)nc1-c1cc2cccc(OC)c2oc1=O`, the “activation” value is inactive: -9.32%.

As for `OCCOCCN1CCN(C2=Nc3ccccc3Sc3ccccc32)CC1`, the “activation” value is inactive: -8.88%.

Turning to `COc1cc(C(=O)N2CCN(CCc3ccncc3)CC2)cc(OC)c1OC`, the “activation” value is inactive: -8.73%.

For the compound `COc1cccc(-n2c(=O)c3c(C)c(C(=O)N(C)C)sc3n(Cc3cccc(C)c3)c2=O)c1`, the “activation” value was inactive: 4.94%.

For `CCc1cc(S(=O)(=O)O)c2cc(C(C)C)cccc1-2`, the “activation” value is inactive: -9.19%.

In the case of `COc1ccc(CCN2CCC(CNC(=O)c3cnn(-c4ccc(C)cc4)c3C3CCN(C(=O)OC(C)(C)C)CC3)CC2)cc1`, the “activation” value is inactive: -9.08%.

Regarding `COc1ccc(-c2nc(C)c(CCNC(=O)C(=O)Nc3ccccc3F)s2)cc1`, the “activation” value was inactive: -11.5%.

On to `Cc1ccc(NC(=O)Cn2c(=O)n(CC3CCC(C(=O)NC(C)C)CC3)c(=O)c3sccc32)cc1` (stereo not drawn), for which the “activation” value was inactive: -6.54%.

Take `COc1ccccc1-n1nc(-c2ccccc2)c2cnc3c(F)cc(F)cc3c21`: the “activation” value was inactive: -3.37%.

On to `COc1ccc(C(CNC(=O)COc2cc(C)cc(C)c2)N2CCCCC2)cc1` (stereo not drawn), for which the “activation” value was inactive: -6.87%.

With `Cc1ccc2c(CC(=O)Nc3c(C(=O)c4ccc(F)cc4)oc4ccccc34)coc2c1`, the “activation” value is inactive: -14.3%.

`CCN(c1ccccc1)S(=O)(=O)c1ccc(NC(=O)c2cc(=O)c3ccc(C)c(C)c3o2)cc1`: the “activation” value was inactive: -15.4%.

In the case of `COc1ccc(CCNC(=O)CS(=O)Cc2nc(-c3ccc(C)cc3)oc2C)cc1OC` (stereo not drawn), the “activation” value is inactive: -20.8%.

In the case of `O=C(CCSCc1ccc(Cl)cc1)N1CCN(c2ccccc2F)CC1`, the “activation” value is inactive: -8.65%.

For the compound `CC(NC(=O)C1CCN(C(=O)N2CCOc3ccc(Cl)cc32)CC1)c1ccccc1` (stereo not drawn), the “activation” value was inactive: -6.27%.

Take `CCC(=O)OCc1cnc(C)c2oc(=O)c(C(=O)Nc3ccc(CC)cc3)cc12`: the “activation” value is inactive: -10.5%.

`Cn1cc(C(=O)[C@@H]2CCc3nc[nH]c3C2)c2ccccc21`: the “activation” value was inactive: -22.1%.

`COc1ccc(N2CCN(C(=O)c3nn(C)c4c3CS(=O)(=O)c3ccccc3-4)CC2)cc1`: the “activation” value was inactive: -7.75%.

As to `COc1ccc(-c2nc3c(c(SCc4cc(C)ccc4C)n2)Cc2c(CO)cnc(C)c2O3)cc1`, the “activation” value is inactive: -10.8%.

In the case of `CCOc1ccc2oc(=O)cc(CN3CCN(C(=O)c4cccc(F)c4)CC3)c2c1`, the “activation” value was inactive: -7.22%.

In the case of `Cc1cccc(C(=O)O)c1O`, the “activation” value was inactive: -9.08%.

Take `CCCN(CCC)CCNC(=O)Cn1ncc2c([nH]c3ccc(C)cc32)c1=O`: the “activation” value is inactive: -8.42%.

As for `COc1ccccc1Nc1nn2c(=O)c3ccc(C(=O)Nc4ccc(F)cc4)cc3nc2s1`, the “activation” value is inactive: -36.6%.

`NC(=O)c1cc(S(=O)(=O)NCc2ccc(Br)cc2)cs1`: the “activation” value was inactive: -9.8%.

Take `CCOC(=O)c1ccc(NC(=O)CCc2c(C)n(CC)c3cc(-c4ccccc4OC)nn3c2=O)cc1`: the “activation” value is inactive: -17%.

For `CCOC(=O)c1[nH]c(C)c(CCC(=O)NCc2ccc(C)cc2)c1C`, the “activation” value was inactive: -13.2%.

In the case of `CCc1cccc(-n2c(=O)c3cccnc3n2CC(=O)NCc2ccccc2Cl)c1`, the “activation” value was inactive: -14.6%.

Consider `Oc1cccc(-c2c3nc(c(-c4cccc(O)c4)c4ccc([nH]4)c(-c4cccc(O)c4)c4nc(c(-c5cccc(O)c5)c5ccc2[nH]5)CC4)C=C3)c1`, for which the “activation” value was inactive: -30.1%.

Regarding `COc1ccc(N2CCN(C(=O)c3ccc(NC(=O)c4nsc5ccccc45)cc3)CC2)cc1`, the “activation” value is inactive: -12.3%.

Regarding `O=C(/C=C\c1ccc2c(c1)OCO2)NC1CC(=O)N(c2ccc(F)cc2)C1` (stereo not drawn), the “activation” value was inactive: -6.17%.

Turning to `CCOCCCNC(=O)c1cc2c(=O)n3ccccc3nc2s1`, the “activation” value was inactive: -21%.

As to `CC1CCN(S(=O)(=O)c2cc(C(=O)NCCc3ccccc3)n(C)c2)CC1`, the “activation” value was inactive: -26.6%.

For the compound `CC(C)(C)c1ccc(C(=O)Nc2cc(-c3ccccc3)nn2-c2ccccc2)cc1`, the “activation” value is inactive: 2.18%.

For `Cc1ccc(C)c(N2CCN(C(=O)c3cc4cc5ccc(C)cc5nc4s3)CC2)c1`, the “activation” value was inactive: -16.1%.

Regarding `CC1CCN(C(=O)CSc2nc3c([nH]c4ccccc43)c(=O)n2-c2ccccc2)CC1`, the “activation” value was inactive: 4.88%.

Take `Cc1ccc(CSc2oc(-c3ccco3)nc2S(=O)(=O)c2ccc(Br)cc2)cc1`: the “activation” value is inactive: -11.1%.

For `O=C(CN1CCN(c2ccc(Cl)cc2)CC1)Nc1ccc(Cl)c(C(F)(F)F)c1`, the “activation” value was inactive: -13.9%.

Take `Cc1ccc(CNC(=O)CCn2ccc3cc(S(=O)(=O)N4CCCC4)ccc32)cc1`: the “activation” value was inactive: -19.5%.

In the case of `Cc1ccc(CNc2nc3c(S(=O)(=O)c4ccc(C)c(C)c4)nnn3c3ccc(Cl)cc23)cc1`, the “activation” value is inactive: -7.28%.

With `CCOc1ccc(-n2c(=O)c3c4c(sc3n(Cc3cc(=O)n5cc(Cl)ccc5n3)c2=O)CCC4)cc1`, the “activation” value is inactive: -13.3%.

On to `CCc1ccc(NC(=O)Cn2c(=O)n(Cc3nc(C)no3)c(=O)c3cc4c(cc32)OCO4)cc1`, for which the “activation” value is inactive: -24.4%.

As for `COc1ccccc1NC(=O)CSc1nnc(-c2nonc2NC(C)=O)n1-c1ccccc1`, the “activation” value was inactive: -8.23%.

As to `Cc1ccc(S(=O)(=O)N(CC(=O)N2CCc3ccccc3C2)c2ccc(C)c(C)c2)cc1`, the “activation” value is inactive: -21%.

Regarding `Cc1ccc(CNC(=O)Cn2c(=O)n(-c3ccc(C)c(F)c3)c(=O)c3sc4ccccc4c32)cc1`, the “activation” value was inactive: 6.68%.

In the case of `O=C(Nc1noc2ccccc12)c1c(F)cccc1F`, the “activation” value was inactive: -15%.

Consider `CCOC(=O)c1c(C)c(-c2ccccc2)n(CC(=O)Nc2cccc(F)c2)c1C`, for which the “activation” value was inactive: -10.6%.

As to `COc1ccc(NC(=O)CSc2nnc3scc(-c4ccc(Cl)cc4)n23)cc1`, the “activation” value was inactive: -14.8%.
